These are yes or no findings as the source states them, for the method shown. Some entries that bind do so weakly or less than the wild type.
Assays:
[1] = target: T1, recombinant full-length HcpA (residues 18 to 175) of B. recurrentis A1 (B. recurrentis A1) (UniProt C1L349); experiment: ELISA; microtiter plates coated with non-denatured HcpA or deletion mutants (1 µg/ml), incubated with 50% normal human serum as source for CFHR-1 for 1 h at RT; mAb JHD8; only the target purified
T1 sequence: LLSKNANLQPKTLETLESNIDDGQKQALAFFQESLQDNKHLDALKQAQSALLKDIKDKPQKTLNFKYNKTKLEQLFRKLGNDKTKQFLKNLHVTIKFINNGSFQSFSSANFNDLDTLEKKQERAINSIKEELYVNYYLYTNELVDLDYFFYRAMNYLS

By UniProt entry, the sequences of proteins in these tests, tags left out. Residues count along the entry.
UniProt Q03591, residues 19-330: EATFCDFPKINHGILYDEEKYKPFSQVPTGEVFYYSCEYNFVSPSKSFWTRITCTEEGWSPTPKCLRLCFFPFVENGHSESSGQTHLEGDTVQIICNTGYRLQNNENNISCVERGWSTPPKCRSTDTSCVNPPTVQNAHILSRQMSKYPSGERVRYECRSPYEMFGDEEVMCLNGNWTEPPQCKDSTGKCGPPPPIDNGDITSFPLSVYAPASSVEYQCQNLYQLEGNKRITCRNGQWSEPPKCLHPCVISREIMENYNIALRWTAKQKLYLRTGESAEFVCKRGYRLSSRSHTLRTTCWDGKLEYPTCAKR
UniProt P08603, residues 19-1231: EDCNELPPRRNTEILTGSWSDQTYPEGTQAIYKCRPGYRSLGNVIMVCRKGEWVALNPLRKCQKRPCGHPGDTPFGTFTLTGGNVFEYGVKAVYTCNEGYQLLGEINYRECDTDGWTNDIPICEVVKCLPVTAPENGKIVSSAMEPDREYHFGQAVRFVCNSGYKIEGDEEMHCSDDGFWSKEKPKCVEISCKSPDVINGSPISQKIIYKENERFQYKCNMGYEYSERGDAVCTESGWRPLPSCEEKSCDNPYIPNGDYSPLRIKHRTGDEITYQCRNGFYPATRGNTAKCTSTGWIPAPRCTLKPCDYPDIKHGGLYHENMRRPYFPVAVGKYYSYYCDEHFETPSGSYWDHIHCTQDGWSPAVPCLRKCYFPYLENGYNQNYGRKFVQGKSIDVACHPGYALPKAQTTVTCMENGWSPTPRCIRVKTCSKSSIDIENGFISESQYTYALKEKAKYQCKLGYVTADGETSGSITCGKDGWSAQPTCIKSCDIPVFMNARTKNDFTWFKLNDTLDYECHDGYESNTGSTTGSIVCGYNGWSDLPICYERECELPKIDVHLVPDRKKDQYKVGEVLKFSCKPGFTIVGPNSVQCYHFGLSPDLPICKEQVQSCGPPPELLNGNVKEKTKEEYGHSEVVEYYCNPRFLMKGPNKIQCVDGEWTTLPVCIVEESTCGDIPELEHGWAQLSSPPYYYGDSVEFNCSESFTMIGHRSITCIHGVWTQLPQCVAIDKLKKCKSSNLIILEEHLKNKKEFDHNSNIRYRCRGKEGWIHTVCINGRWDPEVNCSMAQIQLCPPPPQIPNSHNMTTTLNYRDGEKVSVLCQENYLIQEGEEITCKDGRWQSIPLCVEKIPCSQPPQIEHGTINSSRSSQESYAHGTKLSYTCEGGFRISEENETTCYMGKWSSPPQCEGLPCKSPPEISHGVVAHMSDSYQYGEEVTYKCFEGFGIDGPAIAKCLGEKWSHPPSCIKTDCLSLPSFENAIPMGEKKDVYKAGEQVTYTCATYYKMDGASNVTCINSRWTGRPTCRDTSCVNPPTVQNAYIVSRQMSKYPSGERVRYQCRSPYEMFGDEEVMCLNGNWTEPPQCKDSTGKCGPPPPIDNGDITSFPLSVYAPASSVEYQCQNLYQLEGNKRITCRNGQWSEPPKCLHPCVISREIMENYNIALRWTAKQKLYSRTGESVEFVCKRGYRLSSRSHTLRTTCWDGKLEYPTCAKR

[2] = target: HcpA deletion mutant, residues 48-175 (B. recurrentis A1) (UniProt C1L349); experiment: as above
[3] = target: HcpA deletion mutant, residues 18-115 (B. recurrentis A1) (UniProt C1L349); experiment: as above
[4] = target: HcpA deletion mutant, residues 18-145 (B. recurrentis A1) (UniProt C1L349); experiment: as above
[5] = target: HcpA deletion mutant, residues 78-175 (B. recurrentis A1) (UniProt C1L349); experiment: as above
[6] = target: T1, recombinant full-length HcpA (residues 18 to 175) of B. recurrentis A1 (B. recurrentis A1); experiment: far-Western, overlay or dot blot; ligand affinity blot: purified recombinant HcpA proteins (200 ng) separated by SDS-PAGE, on nitrocellulose, incubated with normal human serum; goat anti-CFH immune serum or CFHR-1 specific mAb JHD8; only the target purified
[7] = target: HcpA deletion mutant, residues 48-175 (B. recurrentis A1) (UniProt C1L349); experiment: as above
[8] = target: HcpA deletion mutant, residues 18-115 (B. recurrentis A1) (UniProt C1L349); experiment: as above
[9] = target: HcpA deletion mutant, residues 18-145 (B. recurrentis A1) (UniProt C1L349); experiment: as above
[10] = target: HcpA deletion mutant, residues 78-175 (B. recurrentis A1) (UniProt C1L349); experiment: as above
[11] = target: HcpA deletion mutant, residues 48-175 (B. recurrentis A1) (UniProt C1L349); experiment: ELISA; microtiter plates coated with non-denatured HcpA or deletion mutants (1 µg/ml), incubated with CFH (10 µg/ml) or PLG (20 µg/ml) for 1 h at RT; goat anti-CFH or goat anti-PLG; both purified
[12] = target: HcpA deletion mutant, residues 18-115 (B. recurrentis A1) (UniProt C1L349); experiment: as above
[13] = target: HcpA deletion mutant, residues 18-145 (B. recurrentis A1) (UniProt C1L349); experiment: as above
[14] = target: HcpA deletion mutant, residues 78-175 (B. recurrentis A1) (UniProt C1L349); experiment: as above

Substance | binding [1] | binding [2] | binding [3] | binding [4] | binding [5] | binding [6] | binding [7] | binding [8] | binding [9] | binding [10] | binding [11] | binding [12] | binding [13] | binding [14]
CFH-related protein 1 of normal human serum (from UniProt Q03591 19-330) | binds | no binding (tested: 50% normal human serum) | no binding (tested: 50% normal human serum) | no binding (tested: 50% normal human serum) | no binding (tested: 50% normal human serum) | binds | no binding | no binding | no binding | no binding | – | – | – | –
human complement factor H (from UniProt P08603 19-1231) | – | – | – | – | – | – | no binding | no binding | no binding | no binding | no binding (tested: 10 µg/ml CFH) | no binding (tested: 10 µg/ml CFH) | no binding (tested: 10 µg/ml CFH) | no binding (tested: 10 µg/ml CFH)
